Here are results for 72 sequences from the supplement of paper PMC10338343.

± gives the standard deviation. In all, about 6,600 sequences were measured (“pre-steady-state target cleavage rate”: median about 0.07, highest 2% from about 0.72 on). This is a selection; strong and weak results do not stand in their true shares.

The assay concerns MIWI (PIWIL1) piRISC loaded with Kctd7 piRNA (30 nt). Briefly: pre-steady-state target cleavage rate (min^-1); MIWI and MILI are mouse PIWI proteins and EfPiwi is from a freshwater sponge; tags in brackets are library labels; higher = faster piRNA-guided slicing of the target. As to conditions: guide: Kctd7 piRNA 5'p-UGUUAAUCUCUCAGAGAAGGUGACAGUGAU; auxiliary factor: 500 nM mouse GTSF1. How it is done:
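Cleave-'n-Seq: a library of target RNAs (target site embedded in constant flanks, ACAGCATTCCGCGTTAGTGATATCCG... 5' flank; DNA-blocked outside the site) at 0.1 nM was incubated with 1 nM active mouse MILI or MIWI piRISC (synthetic 5'-monophosphorylated piRNA guide) with or without 500 nM mouse GTSF1 at 33 °C for 1 min to 16 h. Uncleaved targets were sequenced and normalised to non-target controls, and the pooled three trials were fitted to a burst-and-steady-state model to give the pre-steady-state cleavage rate (min^-1; k3 is constrained to at most 1e-4). Sequence is the target site only; target names encode pairing extent (gX:gY) and contiguous / 1-mismatch / 2-mismatch / bulge geometry. Fits with R² ≤ 0 are excluded.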
As for UUCACUGACACCUUCUCUGAGAGAUAAACA, the “pre-steady-state target cleavage rate” value was 0.214 ± 0.034.

In the case of AUCACUGUGACCUUCUCUGACAGAUUAACA, the “pre-steady-state target cleavage rate” value is 0.328 ± 0.027.

On to UACACUGUCACCAUCUCUGAGAGAUUAUGA, for which the “pre-steady-state target cleavage rate” value stood at 0.0408 ± 0.015.

On to UAGACUGUCACCUUCUCUGGGAGAUUAACA, for which the “pre-steady-state target cleavage rate” value came to 0.515 ± 0.022.

For AUCACUGUCAACCUUCUCUGAGAGAUUAACA, the “pre-steady-state target cleavage rate” value is 0.269 ± 0.021.

As to “UAGUGACAGUGGAUCUCUGAGAGAUUAACC [g2:g17:cont:t1C]”, the “pre-steady-state target cleavage rate” value is < 0.0001.

On to UAGUGAGUCUGCUUCUCUGAGAGAUUAACA, for which the “pre-steady-state target cleavage rate” value worked out at 0.185 ± 0.015.

Turning to UAGUGACACACCUUCUCUCAGAGAUAAACA, the “pre-steady-state target cleavage rate” value worked out at 0.0134 ± 0.0058.

With UAGACUGUCACCUUCUCAGAGAGAUUAUGA, the “pre-steady-state target cleavage rate” value was found to be 0.0418 ± 0.01.

Take UAGUGACAGACCUUCUCCGAGAGAUUAACA: the “pre-steady-state target cleavage rate” value turned out to be 0.0535 ± 0.013.

UAGUCUGACACGUUCUCUGAGAGAUUAACA: the “pre-steady-state target cleavage rate” value was 0.512 ± 0.046.

Take UAGUGACUCACCUUCUCUGAGAGAUUCAACA: the “pre-steady-state target cleavage rate” value amounted to 0.283 ± 0.047.

As for UAGUGAGUCACCUUCUCUGAGAGUAUAACA, the “pre-steady-state target cleavage rate” value turned out to be 0.229 ± 0.046.

For the sequence UAGUGACACACCUACUCUGAGAGAUUAUCA, the “pre-steady-state target cleavage rate” value stood at 0.0862 ± 0.015.

Consider UAGUCUGUCACGAACUCUGAGAGAUUAACA, for which the “pre-steady-state target cleavage rate” value was determined as 0.0819 ± 0.01.

Take UAGACUGACACGUUCUCUGAGAGAUUAACA: the “pre-steady-state target cleavage rate” value was determined as 0.601 ± 0.037.

In the case of UAGUGUGUCACCUUCACUGAGAGUUUAACA, the “pre-steady-state target cleavage rate” value was 0.124 ± 0.021.

For the sequence UAGUGACUCACCUUCUCUGAGAGUUUUACA, the “pre-steady-state target cleavage rate” value amounted to 0.0914 ± 0.019.

As for UUCACUGAGACCUUCUCUGAGAGAUAUUGA, the “pre-steady-state target cleavage rate” value stood at 0.0142 ± 0.0048.

In the case of AUCACUCUCACCUUCUCUGAGAGAUAAACA, the “pre-steady-state target cleavage rate” value was 0.235 ± 0.04.

As to UAGUGACAGACGUUCUCUGAGAGAUUAAGA, the “pre-steady-state target cleavage rate” value is 0.00397 ± 0.0038.

As to UAGUGACUCACCUUCUCUGAGAGUAUUAACA, the “pre-steady-state target cleavage rate” value was 0.22 ± 0.028.

Regarding UAGUGUGUCACCUUCUCUGAGAGAUAUAGA, the “pre-steady-state target cleavage rate” value came out at 0.0321 ± 0.013.

With UAGUGUGUGACCUACUCUGAGAGAUUAACA, the “pre-steady-state target cleavage rate” value was determined as 0.468 ± 0.033.

For the sequence UAGACUGUCACCUUCACUGAGAGAUUUUGA, the “pre-steady-state target cleavage rate” value is 0.108 ± 0.026.

Take UAGUGACUCACCUUCUCUGAGACUAUAUGA: the “pre-steady-state target cleavage rate” value was < 0.0001.

Consider UUCACUGUCACCAAGUCUGAGAGAUUAAGA, for which the “pre-steady-state target cleavage rate” value was determined as 0.0801 ± 0.021.

Consider UACAGUGUCACCUUCUCUGAGACAUUAACA, for which the “pre-steady-state target cleavage rate” value came to 0.257 ± 0.021.

Take UAGUGACACACCUUCUCGAGAGAUUAACA: the “pre-steady-state target cleavage rate” value stood at 0.0137 ± 0.006.

UAGUGUGUCACCUUCUCUGAUGAGAUUAACA: the “pre-steady-state target cleavage rate” value was determined as 0.0106 ± 0.0054.

Consider UAGUGACUCACCUUCUGUGAGAGUUUAACA, for which the “pre-steady-state target cleavage rate” value came to 0.0685 ± 0.0097.

For the sequence UAGUGAGACACCUUCUGUGAGAGAUUAACA, the “pre-steady-state target cleavage rate” value worked out at 0.43 ± 0.03.

As for UAGUGAGUAACCUUCUCUGAGAGAUUAACA, the “pre-steady-state target cleavage rate” value is 0.478 ± 0.034.

As to UAGACUCUCACCUUCUCUGAGUGAUUAACA, the “pre-steady-state target cleavage rate” value is 0.0238 ± 0.0035.

As for UAGUGAGUCACCUUGUCUGAGAGAAUAACA, the “pre-steady-state target cleavage rate” value came to 0.00587 ± 0.0042.

For UAGUGACAGACCUAUCUCUGAGAGAUUAACA, the “pre-steady-state target cleavage rate” value stood at 0.0206 ± 0.0034.

UAGUCUGUCACCAUCUCUGAGAGUUUAACA: the “pre-steady-state target cleavage rate” value stood at 0.223 ± 0.033.

Consider UUCACUGUCACCUUCUGAGAGAGAUUAUGA, for which the “pre-steady-state target cleavage rate” value was found to be 0.0157 ± 0.0081.

Turning to UAGUGUGUCACGUUCUCUGAGAGAAUAACA, the “pre-steady-state target cleavage rate” value is 0.19 ± 0.037.

For UUCACAGUCACCUUCUCUGAGAGAUUAUGA, the “pre-steady-state target cleavage rate” value turned out to be 0.103 ± 0.028.

As to UAGUGACUCACCUUCUCUGAGAGAUUUAACA, the “pre-steady-state target cleavage rate” value is 0.224 ± 0.027.

Take UAGUGACACUCCUUCUCUGAGUGAUUAACA: the “pre-steady-state target cleavage rate” value stood at 0.017 ± 0.004.

Consider AUCACUGACACCUUCUCUGAGAGAUUUACA, for which the “pre-steady-state target cleavage rate” value is 0.356 ± 0.06.

As for UAGUGUGUCACCUUCUCUGAGAGAUUCAACA, the “pre-steady-state target cleavage rate” value worked out at 0.288 ± 0.041.

Take UACACUUCACCUUCUCUGAGAGAUUAACA: the “pre-steady-state target cleavage rate” value came to 0.517 ± 0.031.

Regarding UAGUGACACACCUUCUCUGAGUGAUUAUCA, the “pre-steady-state target cleavage rate” value was determined as 0.00555 ± 0.0028.

UAGUCUGUCACCUUCUGUGUGAGAUUAACA: the “pre-steady-state target cleavage rate” value amounted to 0.091 ± 0.0073.

On to UAGUCUGUGAGCUUCUCUGAGAGAUUAACA, for which the “pre-steady-state target cleavage rate” value was 0.294 ± 0.016.

Turning to UACACUGUCACCUUGUCUGAGAGAUUUUGA, the “pre-steady-state target cleavage rate” value came out at 1.02 ± 0.24.

Regarding UAGUCUGUCACCUUCUCUGAGAGCAUUAACA, the “pre-steady-state target cleavage rate” value turned out to be 0.394 ± 0.036.

Consider UAGUGAGUCACCUUCUCUGAGUCUUUAAGA, for which the “pre-steady-state target cleavage rate” value was 0.00546 ± 0.0039.

For UAGUCUGACAGCUUCUCUGAGAGAUUAACA, the “pre-steady-state target cleavage rate” value amounted to 0.303 ± 0.029.

In the case of UUCACUGUCACCUUCUCAGAGAGAUUAUGA, the “pre-steady-state target cleavage rate” value is 0.0684 ± 0.023.

UAGACUGUCACCUUCUCCGAGAGAUUAACA: the “pre-steady-state target cleavage rate” value came to 0.332 ± 0.052.

As to UACACUGUCACGUUCUCUGAGAGAUUAAGA, the “pre-steady-state target cleavage rate” value is 0.124 ± 0.021.

For UACACUGUCACCUACUCUGAGAGAUUAACA, the “pre-steady-state target cleavage rate” value amounted to 0.459 ± 0.029.

On to UAGACUGUGUGCUUCUCUGAGAGAUUAAGA, for which the “pre-steady-state target cleavage rate” value stood at 0.00505 ± 0.0028.

For the sequence UAGACUGUCACCUUCUCUGUGAGAUAAACA, the “pre-steady-state target cleavage rate” value was determined as 0.174 ± 0.015.

Take UACACUGGCACCUUCUCUGAGAGAUUAACA: the “pre-steady-state target cleavage rate” value was 0.453 ± 0.12.

On to UUCAGACUCACCUUCUCUGAGAGAUUUUGA, for which the “pre-steady-state target cleavage rate” value stood at 0.0132 ± 0.0032.

Consider UAGUGAGUCACGUUCUCUGAGUGAUUAACA, for which the “pre-steady-state target cleavage rate” value is 0.019 ± 0.0034.

Regarding UACACUGUCACGUACUCUGAGAGAUUAACA, the “pre-steady-state target cleavage rate” value came to 0.334 ± 0.032.

UAGUGACACACCUUCUGUGAGAGUUUAACA: the “pre-steady-state target cleavage rate” value was 0.157 ± 0.025.

As to UAGUGAGUCACCUUCUCUGACAGAUUAACA, the “pre-steady-state target cleavage rate” value was determined as 0.388 ± 0.031.

For the sequence UAGACUGUCACCUUGUCUGAGAGAAUAACA, the “pre-steady-state target cleavage rate” value worked out at 0.157 ± 0.051.

In the case of UUCACUGUCACCUUCUGUGAGUGAUUAACA, the “pre-steady-state target cleavage rate” value worked out at 0.0234 ± 0.0055.

Regarding UAGUGAGUCACCUUCUCUGAGAGAUAUUGA, the “pre-steady-state target cleavage rate” value came to 0.0893 ± 0.029.

Turning to AUCACUGUCACCUUCACUGAGAGAUUAAGA, the “pre-steady-state target cleavage rate” value came out at 0.211 ± 0.039.

Take UAGUCUGUCACCUUCUGUGAGAGUUUAACA: the “pre-steady-state target cleavage rate” value was determined as 0.143 ± 0.019.

For the sequence UAGUGACAGACCUUCUCUGAGUGAUAAACA, the “pre-steady-state target cleavage rate” value worked out at 0.0116 ± 0.0035.

For the sequence UUCACUGUCACCAUGUCUGAGAGAUUAACA, the “pre-steady-state target cleavage rate” value is 0.23 ± 0.015.

In the case of UAGUCUGUCACCUUCUCUGAGAGUUUUACA, the “pre-steady-state target cleavage rate” value came to 0.21 ± 0.042.
